{"source": "PubChem BioAssay AID686970", "about": "(National Center for Advancing Translational Sciences (NCATS), 2013)", "note": "The campaign covered roughly 360,000 compounds. About 6,000 (1.7%) were called active. Inconclusive means that the source gave no clear call. Such entries were picked first, then a sample of the others. The call rests on the fitted dose curve; in most records, active means well fitted cell-killing curve with a large enough effect; inconclusive means small, poorly fitted or top-dose-only effect, or effect the other way; inactive means flat fitted curve, though single readings scatter. No potency is given beside an inconclusive call; the fits are too rough. Potency means the concentration at half of the fitted maximal effect; tags describe the fitted curve by direction and shape."}
{"assay": "qHTS for induction of synthetic lethality in tumor cells producing 2HG: qHTS for the HT-1080-NT fibrosarcoma cell line;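 further: NT is the 2HG producing partner of a matched IDH1 knockdown line; nearly all actives have a fitted effect of over 55% in size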;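 on activity, negative = less viability: 0% = DMSO-treated cells and -100% = media-only wells without cells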", "conditions": "HT-1080-NT fibrosarcoma viability, CellTiter-Glo ATP luminescence, 48 h; activity, negative = less viability: at 46.1 µM (top of the series) unless noted", "outline": "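HT-1080-NT; 750 cells/well; 5% FBS RPMI; 48 h compound, 37 degrees C; CellTiter-Glo luminescence; curve fitting and curve-class assignment.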"}
{"smiles": "O=C1c2cccc3c([N+](=O)[O-])ccc(c23)C(=O)N1CC1CCCO1", "note": "(stereo not drawn)", "Potency": "active: 23.1 µM"}
{"smiles": "Cc1c(O)c(=O)ccn1Cc1ccccc1", "activity, negative = less viability": "inactive: -22.8%"}
{"smiles": "Cc1c(C(=O)N2CCOCC2)c(S(=O)(=O)Nc2ccccc2F)c(C)n1C", "activity, negative = less viability": "inactive: 11.7%"}
{"smiles": "COc1ccc(C(=O)Nc2nc3ccc(S(C)(=O)=O)cc3s2)cc1OC", "activity, negative = less viability": "inconclusive: -14.1% [cytotoxic]"}
{"smiles": "Cn1c(/C(C#N)=C(\\O)c2ccccc2Cl)nc2ccccc21", "activity, negative = less viability": "inactive: 0%"}
{"smiles": "Cc1cc(C)cc(C(=O)N(CCc2ccccc2)C2CC3CCC(C2)N3C)c1", "note": "(stereo not drawn)", "Potency": "inconclusive [cytotoxic, single point]"}
{"smiles": "Cc1ccc(S(=O)(=O)NC(C)C(=O)N2CCOCCOCCOCCOCC2)cc1", "note": "(stereo not drawn)", "activity, negative = less viability": "inactive: 19.3%"}
{"smiles": "C/C(=N\\OC(=O)c1ccc(Cl)cc1)c1sc(-c2ccccc2)nc1C", "activity, negative = less viability": "inactive: 3.14%"}
{"smiles": "NC(=O)C(c1ccc(Cl)cc1)c1ccc(Sc2ccc(Cl)cc2)nn1", "note": "(stereo not drawn)", "Potency": "inconclusive [cytotoxic, partial curve]"}
{"smiles": "Cc1occc1C(=O)N/N=C/c1ccc2c(c1)OCO2", "Potency": "active: 9.2 µM"}
{"smiles": "CN(C)/C=C(/C(=O)c1ccccc1)S(=O)(=O)c1ccc(Cl)cc1", "Potency": "inconclusive [rising, single point]"}
{"smiles": "CC(C)(C)OC(=O)[C@H](Cc1ccccc1)NC(=O)c1nc[nH]c1C(=O)NC1CCN(C(=O)OC(C)(C)C)CC1", "Potency": "inconclusive [cytotoxic, single point]"}
{"smiles": "Cc1cc(C(F)(F)F)nc(SCC(=O)NC2=NC(=O)C(C)S2)n1", "note": "(stereo not drawn)", "Potency": "inconclusive [rising, partial curve]"}
{"smiles": "N#C/C(=C\\c1c(Cl)cccc1Cl)c1nn(-c2ccccc2)c(-n2cccc2)c1C#N", "Potency": "inconclusive [rising, single point]"}
{"smiles": "N#Cc1nc(-c2cccs2)oc1NCCCN1CCOCC1", "activity, negative = less viability": "inactive: 1.06%"}
{"smiles": "CCn1nc(C)c(CN2CCC(C(=O)Nc3cccc(-c4cccc(F)c4)c3)CC2)c1C", "activity, negative = less viability": "inconclusive: -6.63% [cytotoxic]"}
{"smiles": "O=[N+]([O-])c1ccc(N=Cc2ccc(Br)c([N+](=O)[O-])c2)cc1", "Potency": "inconclusive [cytotoxic, partial curve]"}
{"smiles": "Cc1cnc(NC(=O)c2cncc(Br)c2)s1", "Potency": "inconclusive [rising, single point]"}
{"smiles": "NC1=Nc2cccc3cccc1c23", "Potency": "inconclusive [cytotoxic, single point]"}
{"smiles": "Cc1nn(Cc2cccc(C(=O)NC34CC5CC(CC(C5)C3)C4)c2)c(C)c1Br", "Potency": "inconclusive [cytotoxic, single point]"}
{"smiles": "CCOc1ccc(CCNC(=O)CN2C(=O)NC3(CCCCCC3)C2=O)cc1OCC", "activity, negative = less viability": "inconclusive: 4.33% [cytotoxic]"}
{"smiles": "CC(C)c1onc(C(=O)NCCc2ccccc2)c1[N+](=O)[O-]", "Potency": "inconclusive [cytotoxic, single point]"}
{"smiles": "COCCCn1c(SCc2nnc(-c3ccc(OC)c(OC)c3)o2)nc2ccccc2c1=O", "Potency": "inconclusive [cytotoxic, single point]"}
{"smiles": "CCC1CCCCN1CCCNC(=O)CSc1nc2nc(C)c(Cc3ccc(C)cc3)c(C)n2n1", "note": "(stereo not drawn)", "Potency": "inconclusive [cytotoxic, partial curve, poor fit]"}
{"smiles": "NC(Cc1ccc(F)cc1)c1csc(Nc2ccc(C(=O)c3ccccc3)cc2)n1", "note": "(stereo not drawn)", "Potency": "inconclusive [cytotoxic, single point]"}
{"smiles": "CN(C)c1ccc(/C=N/NC(=O)c2cccc(N3CCCC3=O)c2)cc1", "Potency": "inconclusive [rising, single point]"}
{"smiles": "COc1ccc(NS(=O)(=O)c2ccc(NC(C)=O)cc2)c(OC)c1", "activity, negative = less viability": "inactive: -22.5%"}
{"smiles": "CO[C@H]1/C=C/O[C@@]2(C)Oc3c(C)c(O)c4c(O)c(c5c(c4c3C2=O)NC2(CCN(CC(C)C)CC2)N=5)=NC(=O)/C(C)=C\\C=C\\[C@H](C)[C@H](O)[C@@H](C)[C@@H](O)[C@@H](C)[C@H](OC(C)=O)[C@@H]1C", "Potency": "inconclusive [cytotoxic, partial curve]"}
{"smiles": "CCNC(=S)/N=C(/Nc1ccccc1)Nc1nc(C)cc(C)n1", "activity, negative = less viability": "inactive: -12.7%"}
{"smiles": "COc1cccc(N2CCN(Cc3nc4scc(-c5ccccc5)c4c(=O)[nH]3)CC2)c1", "Potency": "active: 13 µM"}
{"smiles": "COc1ccc(C(=O)c2coc3ccc(OC(C)=O)cc23)cc1", "activity, negative = less viability": "inactive: -3.53%"}
{"smiles": "COc1ccc([N+](=O)[O-])cc1NCc1cccnc1", "Potency": "inconclusive [cytotoxic, partial curve]"}
{"smiles": "COc1ccc([C@H]2CC(=O)C=C(c3ccc4ccn(C)c4c3)C2)cc1", "Potency": "inconclusive [cytotoxic, single point]"}
{"smiles": "O=C(Nc1cccc(Cl)c1)Nc1csc([N+](=O)[O-])c1", "Potency": "active: 20.6 µM"}
{"smiles": "O=C(C[n+]1ccccc1)Nc1ccc(Cl)c([N+](=O)[O-])c1", "activity, negative = less viability": "inactive: -18.1%"}
{"smiles": "NS(=O)(=O)c1ccc(CCNC(=O)c2ccc(NC3=NC4CS(=O)(=O)CC4S3)cc2)cc1", "note": "(stereo not drawn)", "activity, negative = less viability": "inactive: 27.6%"}
{"smiles": "Cc1nc2ccc(Cl)cn2c1C(=O)NN", "Potency": "inconclusive [cytotoxic, single point]"}
{"smiles": "COc1ccc(C(C(=O)NC(C)(C)C)N(C(=O)CCC(=O)Nc2cc(C)on2)c2ccc(C)c(C)c2)cc1", "note": "(stereo not drawn)", "Potency": "inconclusive [cytotoxic, single point]"}
{"smiles": "Cc1ncc(CO)c(CNc2ccc(Oc3ccccc3)cc2)c1O", "activity, negative = less viability": "inactive: -19%"}
{"smiles": "COc1ccccc1NC(=S)N(Cc1ccco1)Cc1cc2ccc(C)c(C)c2[nH]c1=O", "Potency": "inconclusive [cytotoxic, full curve]"}
{"smiles": "CCCN1CCN(CCCNC(=O)c2ccc(CS(=O)c3ccccc3C)o2)CC1", "note": "(stereo not drawn)", "activity, negative = less viability": "inactive: -1.36%"}
{"smiles": "Cc1cccc(C(=O)OCC(=O)NC(=O)c2ccccc2)c1O", "activity, negative = less viability": "inactive: 9.03%"}
{"smiles": "Cc1cc(C(=O)N/N=C/c2cc([N+](=O)[O-])ccc2O)c2ccccc2n1", "Potency": "inconclusive [cytotoxic, single point]"}
{"smiles": "CCN1CCN(c2cc(C)c3cc(NC(=S)N4CCN(c5ccccc5F)CC4)ccc3n2)CC1", "Potency": "inconclusive [cytotoxic, single point]"}
{"smiles": "C=CCn1c2ccccc2c(=O)c2cc(C#CC3(O)CCCCC3)ccc21", "Potency": "inconclusive [cytotoxic, single point]"}
{"smiles": "COc1ccc(C(=O)/C=C/C(=O)N(CC(=O)NC2CCCCC2)Cc2ccccc2)c(O)c1", "Potency": "active: 3.66 µM"}
{"smiles": "COc1ccc(CSCC(=O)N/N=C/c2ccccc2O)cc1", "Potency": "inconclusive [cytotoxic, single point]"}
{"smiles": "O=C(Nc1cccc(-c2cccc(F)c2)c1)C1CCN(C2CCOCC2)CC1", "Potency": "inconclusive [cytotoxic, single point]"}
{"smiles": "CC(C)C(N)c1csc(Nc2ccc(C(F)(F)F)cn2)n1", "note": "(stereo not drawn)", "Potency": "inconclusive [cytotoxic, single point]"}
{"smiles": "Cc1cccc(C)c1NC(=O)C1c2ccccc2OCC(=O)N1Cc1ccc2c(c1)OCO2", "note": "(stereo not drawn)", "activity, negative = less viability": "inactive: -1.38%"}
{"smiles": "Cc1[nH]n(-c2ccccc2)c(=S)c1C=Nc1ccc([N+](=O)[O-])cc1", "Potency": "inconclusive [cytotoxic, partial curve]"}
{"smiles": "CC(=O)NC(c1ccccc1)c1nc(-c2cc3ccccc3o2)cs1", "note": "(stereo not drawn)", "Potency": "inconclusive [cytotoxic, single point]"}
{"smiles": "CCN1CCN(c2cc3nc(C)n(Cc4ccccc4)c(=O)c3cc2NC(=O)c2ccccc2F)CC1", "Potency": "inconclusive [cytotoxic, single point]"}
{"smiles": "CC(C)C[C@H](NC(=O)C1CCN(C(=O)[C@H](Cc2ccccc2)NC(=O)OC(C)(C)C)CC1)C(=O)O", "activity, negative = less viability": "inactive: 3.3%"}
{"smiles": "COC(=O)Nc1nc2ccc(Sc3ccccc3)cc2[nH]1", "Potency": "active: 1.16 µM"}
{"smiles": "Oc1ccccc1N=Nc1ccccc1O", "Potency": "inconclusive [cytotoxic, full curve]"}
{"smiles": "C[C@]12c3[nH]c4cc(-c5ccco5)ccc4c3CCN1C(=O)[C@@H](CC(=O)NCC13CC4CC(CC(C4)C1)C3)C[C@@H]2C(=O)N1CCOCC1", "Potency": "inconclusive [cytotoxic, partial curve]"}
{"smiles": "O=[N+]([O-])c1cc(NS(=O)(=O)c2ccc(Cl)nc2)ccc1Cl", "Potency": "inconclusive [cytotoxic, single point]"}
{"smiles": "COc1ccccc1NC(=O)c1cnc(Nc2ccccc2OC)c2ccccc12", "Potency": "active: 3.66 µM"}
{"smiles": "CN(C)c1cc2c(c(N(C)C)c1)C(=O)c1ccccc1C2=O", "activity, negative = less viability": "inactive: -18%"}
{"smiles": "O=C1CS(=O)(=O)N(Cc2cccc(F)c2)c2ccc(Br)cc21", "Potency": "inconclusive [cytotoxic, partial curve]"}
{"smiles": "O=C(Nc1sc2c(c1C(=O)O)CCCCC2)c1ccccc1F", "Potency": "inconclusive [cytotoxic, full curve, poor fit]"}
{"smiles": "COC(=O)C(NS(=O)(=O)c1cccc(S(=O)(=O)NC(C(=O)OC)c2ccccc2)c1)c1ccccc1", "note": "(stereo not drawn)", "activity, negative = less viability": "inactive: 13.5%"}
{"smiles": "COc1cc(N(C)C)ccc1C=c1c2ccccc2n2c1cc(-c1ccccc1)[n+]2C", "Potency": "inconclusive [cytotoxic, single point]"}
{"smiles": "CN=C(Nc1cc(Cl)ccc1Cl)SC1CC(=O)N(c2ccc(C(=O)OC)cc2)C1=O", "note": "(stereo not drawn)", "Potency": "inconclusive [cytotoxic, single point]"}
{"smiles": "CC1CCCCC1NC(=O)c1c(O)nc2ccccn2c1=O", "note": "(stereo not drawn)", "Potency": "inconclusive [cytotoxic, full curve, poor fit]"}
{"smiles": "Cn1c(CN2CCCC2)nc2cc(NC(=O)COc3ccc(Cl)cc3)ccc21", "Potency": "inconclusive [cytotoxic, single point]"}
{"smiles": "CCc1nnc(N/N=C/c2ccc(N3CCC(C)CC3)c([N+](=O)[O-])c2)n1N", "Potency": "inconclusive [cytotoxic, partial curve, poor fit]"}
